The campaign covered roughly 48,000 compounds. About 1,200 (2.5%) were called active. Another 2% or so got no clear call; they are omitted.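 Rule for the calls: active = activation of at least 60% and not above a set upper limit (about 1 call in 100 departs from these limits); inconclusive = activation of 40% to 60%, or above that upper limit; inactive = activation under 40%.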 This is one part of the list.
Target: Probable G-protein coupled receptor 32 (Homo sapiens) (UniProt O75388)
Assay: qHTS for Agonists of Human Resolvin D1 Receptor DRV1
Conditions: CHO-K1 GPR32 beta-arrestin PathHunter luminescence, 90 min; at 76.9 µM; stronger effect = higher value; zero percent set by DMSO-only wells
In short: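 Using DMSO wells as EC0, agonist-induced signal was taken as chemiluminescence from beta-Gal reconstituted upon beta-arrestin recruitment to GPR32 in CHO-K1 cells after 90 min compound treatment.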

UniProt O75388, sequence (O75388 whole entry, looked up): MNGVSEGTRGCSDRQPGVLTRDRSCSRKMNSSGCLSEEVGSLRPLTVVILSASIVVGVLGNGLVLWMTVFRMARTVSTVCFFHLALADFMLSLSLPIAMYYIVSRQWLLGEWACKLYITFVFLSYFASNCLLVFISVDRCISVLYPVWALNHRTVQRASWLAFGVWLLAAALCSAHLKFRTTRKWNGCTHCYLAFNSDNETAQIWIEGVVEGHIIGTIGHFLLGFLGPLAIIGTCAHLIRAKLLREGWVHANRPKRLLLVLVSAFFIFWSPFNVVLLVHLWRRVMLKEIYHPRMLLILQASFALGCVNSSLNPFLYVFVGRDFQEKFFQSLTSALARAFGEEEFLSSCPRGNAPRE

`CCc1ccc(-n2c(=O)c3c4c(sc3n(CC(=O)N3CCC(C)CC3)c2=O)CCC4)cc1` was tested. Which activation did it give?
Its activation is inactive: -23.4%.

With `CCc1nonc1NC(=O)c1oc2ccc(Br)cc2c1C` as the molecule, how does the activation read?
Its activation is inactive: 4.62%.

Which activation does the source give for `Cc1ccc(Cl)cc1NC(=O)c1oc2ccc(S(=O)(=O)N3CCCCC3)cc2c1C` here?
Its activation is inactive: -1.37%.

With `Cc1ccc(NC(=O)C2CCCN(S(=O)(=O)c3cccc4cccnc34)C2)cc1` (stereo unspecified) as the molecule, how does the activation read?
Its activation is inactive: -1.96%.

How did the activation turn out when `Cc1ccc(Cl)cc1NC(=O)c1oc2ccc(S(=O)(=O)N(C)C3CCCCC3)cc2c1C` was run?
Its activation is inactive: -8.6%.

`Cc1ccc(S(=O)(=O)c2cn(Cc3cccc(C)c3)c3cc4c(cc3c2=O)OCO4)cc1` was tested. Which activation did it give?
The activation was inactive: -8.2%.

How did the activation turn out when `CCOC(=O)c1ccc(NC(=O)CSc2cc(=O)n(CC)c3ccccc23)cc1` was run?
Its activation is inactive: -16.7%.

How did the activation turn out when `Cc1nn(C(C)C(=O)N2CCN(c3ccc(Cl)cc3)CC2)c(=O)c2cc3occc3n12` (stereo unspecified) was run?
The activation was inactive: 7.98%.

With `CC(=O)CSc1nnc2cc(C)c3cc(C)cc(C)c3n12` as the molecule, how does the activation read?
Its activation is inactive: -28.6%.

Which activation does the source give for `CCC(CC)C(=O)Nc1nnc(SCc2cc(=O)n3cccc(C)c3n2)s1` here?
Its activation is inactive: 4.35%.

Which activation does the source give for `CSc1ccc(/C=C/c2nc3ccccc3n2S(=O)(=O)c2cccc(Cl)c2)cc1` here?
Its activation is inactive: -7.84%.

With `Cc1ccc2c(c1)c(=O)c(C(=O)c1ccc3c(c1)OCO3)cn2Cc1ccc(Cl)cc1` as the molecule, how does the activation read?
The activation was inactive: -21.5%.

Which activation does the source give for `CCOc1ccc(CN(C(=O)c2cc(=O)c3cc(C)cc(C)c3o2)C2CCS(=O)(=O)C2)cc1` (stereo unspecified) here?
Its activation is inactive: -23.1%.

For `COc1cc(NC(=O)CCc2c(C)nc3cc(-c4ccccc4)nn3c2C)cc(OC)c1OC`, which activation is on record?
The activation was inactive: -5.7%.

For `O=C(NCCc1ccc(Cl)cc1)C(=O)NCC(c1ccco1)S(=O)(=O)c1ccc(Cl)cc1` (stereo unspecified), which activation is on record?
Its activation is inactive: 2.75%.

`CCOc1ccc(CN2C(=O)c3ccccc3Sc3ccc(C(=O)O)cc32)cc1` was tested. Which activation did it give?
Its activation is inactive: -5.13%.

`NC(=O)CC[C@@H]1NC(=O)[C@H](Cc2ccccc2)NC(=O)[C@H](Cc2ccc(O)cc2)NC(=O)CCSSC[C@@H](C(=O)N2CCC[C@H]2C(=O)N[C@@H](CCCN=C(N)N)C(=O)NCC(N)=O)NC(=O)[C@H](CC(N)=O)NC1=O` was tested. Which activation did it give?
The activation was inactive: 9.5%.

For `CCCN1C(=O)C2(c3ccccc31)c1c(oc3ccc(F)cc3c1=O)C(=O)N2CCCOC(C)C` (stereo unspecified), which activation is on record?
The activation was inactive: 7.48%.

How did the activation turn out when `Cc1oc2ncnc(N3CCCCC3)c2c1C(=O)N1CCN(c2cccc(Cl)c2)CC1` was run?
The activation was inactive: -7.09%.

`CN(C(=O)CSc1nnc(-c2ccccc2F)o1)C1CCCCC1` was tested. Which activation did it give?
Its activation is inactive: 30.1%.

With `CC(C)(C)c1ccc(OCC(=O)Nc2ccc(S(=O)(=O)Nc3ncccn3)cc2)cc1` as the molecule, how does the activation read?
The activation was active: 78.6%.
